Measurements reported in PubChem BioAssay AID686979 (National Center for Advancing Translational Sciences (NCATS), 2013).
Among all 420,000 compounds or so, about 50,000 (12%) were called active. Inconclusive results, whose numbers are uncertain, are shown with a selection of clear calls. The call rests on the fitted dose curve; in most records, active means well fitted inhibition curve with a large enough effect; inconclusive means small, poorly fitted or top-dose-only effect; inactive means flat fitted curve, though single readings scatter. No potency is given beside an inconclusive call; the fits are too rough.

Assay: qHTS for Inhibitors of human tyrosyl-DNA phosphodiesterase 1 (TDP1): qHTS in cells in presence of CPT; further: nearly all actives have a fitted effect of over 55% in size
Settings: chicken DT40 Tdp1-/-;hTDP1 cells + 20 nM CPT, ATP luminescence, 48 h; activity change, negative = growth inhibition: at 46.2 µM (top of the series) unless noted
In short: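 Cell growth measured by CellTiter-Glo luminescence after a minimum 48 h, 37 C compound exposure with 20 nM CPT in Tdp1-knockout DT40 cells stably expressing hTDP1, seeded 400/well; qHTS titration format.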
On the % scale 0 is the no-effect control and ±100 the full control effect; potency means the concentration at half of the fitted maximal effect; tags describe the fitted curve by direction and shape.

**Q.** With Cc1ccc(S(=O)(=O)c2ncccc2N)cc1 as the molecule, how does the “activity change, negative = growth inhibition” value read?
**A.** Its value is inactive: 11%.

**Q.** With O=C(Nc1cc(C(=O)Nc2ccc(S(=O)(=O)O)cc2S(=O)(=O)O)cc(C(=O)Nc2ccc(S(=O)(=O)O)cc2S(=O)(=O)O)c1)Nc1cc(C(=O)Nc2ccc(S(=O)(=O)O)cc2S(=O)(=O)O)cc(C(=O)Nc2ccc(S(=O)(=O)O)cc2S(=O)(=O)O)c1 as the molecule, how does the Potency read?
**A.** Its Potency is inconclusive [inhibitor, single point].

**Q.** With CC(Oc1ccc(C(C)(C)C)cc1)C(=O)NCC(c1ccco1)N1CCCC1 (stereo not drawn) as the molecule, how does the Potency read?
**A.** Its Potency is active: 23.1 µM.

**Q.** With COc1ccc(N2CCN(c3cc(C(=O)Nc4cc(OC)c(OC)c(OC)c4)ncn3)CC2)cc1OC as the molecule, how does the Potency read?
**A.** Its Potency is active: 14.6 µM.

**Q.** For O=C(Nc1cccc(Cl)c1Cl)c1csc([C@H]2C[C@H](O)[C@@H](CO)O2)n1, which Potency is on record?
**A.** Its Potency is active: 14.6 µM.

**Q.** With CCOc1ccc2[nH]c3c(NCCc4ccc(OC)c(OC)c4)ncnc3c2c1 as the molecule, how does the Potency read?
**A.** The Potency was active: 4.11 µM.

**Q.** Which Potency does the source give for Cc1csc2nc(O)c(C(=O)NC3CCCCCC3)c(=O)n12 here?
**A.** Its Potency is inconclusive [inhibitor, single point].

**Q.** Which Potency does the source give for Cn1nc(-c2ccccc2)c(COC(=O)c2cccc(Cl)c2)c1S(=O)(=O)c1ccccc1 here?
**A.** The Potency was inconclusive [inhibitor, single point].

**Q.** With O=C(O)CCc1c(C(=O)O)[nH]c2ccccc12 as the molecule, how does the “activity change, negative = growth inhibition” value read?
**A.** The value was inactive: 0.915%.

**Q.** With CCOC(=O)C(C)Sc1nc2ccccc2c(=O)n1CC1CCCCC1 (stereo not drawn) as the molecule, how does the Potency read?
**A.** The Potency was active: 12.6 µM.

**Q.** With COc1cc2ccccc2cc1C(=O)NC(=S)Nc1cc(C(=O)O)ccc1C as the molecule, how does the “activity change, negative = growth inhibition” value read?
**A.** Its value is inactive: -20.9%.

**Q.** For Cc1cc2nc(SCCOC(=O)Nc3ccc(Cl)cc3)nc(C)c2cc1C, which activity change, negative = growth inhibition is on record?
**A.** The activity change, negative = growth inhibition was inconclusive: -35.7% [inhibitor].

**Q.** With CCn1cc(C(=O)NCc2ccc(Cl)cc2)c(=O)c2cc(S(=O)(=O)N3CCOCC3)ccc21 as the molecule, how does the Potency read?
**A.** The Potency was active: 20.6 µM.

**Q.** With c1ccc(Cn2ncc3c(Nc4ccccc4)ncnc32)cc1 as the molecule, how does the Potency read?
**A.** The Potency was inconclusive [inhibitor, single point].

**Q.** For CCCCNc1nc(Oc2ccc(=O)n(-c3ccccc3)n2)nc(N(CC)CC)n1, which Potency is on record?
**A.** The Potency was inconclusive [inhibitor, partial curve].

**Q.** With COc1ccc(CNC(=O)CSc2nc(-c3ccccc3)cc(-c3cccs3)c2C#N)cc1 as the molecule, how does the Potency read?
**A.** Its Potency is active: 14.6 µM.

**Q.** For Cc1ccc(C(=O)N2CCN(S(=O)(=O)c3ccc(Br)cc3)CC2)o1, which “activity change, negative = growth inhibition” value is on record?
**A.** Its value is inactive: -0.0072%.

**Q.** With COC(=O)CSc1ncnc2c1cnn2Cc1ccccc1 as the molecule, how does the “activity change, negative = growth inhibition” value read?
**A.** Its value is inactive: -1.24%.

**Q.** Which Potency does the source give for CCCCN(CCCNC(=O)C1CCN(C(=O)c2cc3sccc3n2C)CC1)Cc1ccccc1 here?
**A.** Its Potency is inconclusive [inhibitor, single point].

**Q.** Which Potency does the source give for O=C(Nc1ccccc1O)c1ccc(Cl)cc1 here?
**A.** The Potency was active: 16.4 µM.

**Q.** Which Potency does the source give for CCOC(=O)c1c(NC(=O)CSc2nnc(CNc3ccc(Cl)cc3)o2)sc(C)c1C here?
**A.** The Potency was inconclusive [inhibitor, single point].

**Q.** With O=C(Nc1cccc2ccccc12)c1cc2c(cc1Br)OCO2 as the molecule, how does the Potency read?
**A.** The Potency was inconclusive [inhibitor, single point].

**Q.** With Cc1cccnc1NC(=S)NCc1ccco1 as the molecule, how does the “activity change, negative = growth inhibition” value read?
**A.** Its value is inactive: -16.3%.

**Q.** Which Potency does the source give for CCOc1ccc(CCNC(=O)CS(=O)Cc2nc(-c3ccc(OC)cc3)oc2C)cc1OCC (stereo not drawn) here?
**A.** Its Potency is inconclusive [inhibitor, single point].

**Q.** With COc1cccc(C(=O)NC2CCN(CC(=O)Nc3cccc(C)c3C)CC2)c1 as the molecule, how does the “activity change, negative = growth inhibition” value read?
**A.** The value was inactive: -16.8%.

**Q.** With Cc1ccc(-c2nnc(SCC(=O)N3CCCc4ccccc43)o2)cc1 as the molecule, how does the Potency read?
**A.** The Potency was inconclusive [inhibitor, single point].

**Q.** Which Potency does the source give for CCC1=Nc2cc(C(=O)NCC3CCCO3)ccc2Sc2ccc(Cl)cc21 (stereo not drawn) here?
**A.** The Potency was active: 3.66 µM.

**Q.** For C[C@@H]1CN([C@@H](C)CO)C(=O)CCCn2nncc2CO[C@@H]1CN(C)C(=O)c1ccc(N2CCN(C)CC2)cc1, which “activity change, negative = growth inhibition” value is on record?
**A.** The value was inactive: -6.9%.

**Q.** With CN(C)/C=N/C(=S)Nc1cc(Cl)cc(Cl)c1 as the molecule, how does the “activity change, negative = growth inhibition” value read?
**A.** Its value is inactive: 7.71%.

**Q.** Which Potency does the source give for Cc1cc(C)c2nc(C(F)(F)F)c(C#N)c(N)c2c1 here?
**A.** The Potency was inconclusive [inhibitor, single point].

**Q.** For CN(C)c1ncc([N+](=O)[O-])cc1C(F)(F)F, which Potency is on record?
**A.** Its Potency is inconclusive [inhibitor, single point].

**Q.** With O=C(Nc1ccc([N+](=O)[O-])cc1)C1(c2ccccc2)CCOCC1 as the molecule, how does the “activity change, negative = growth inhibition” value read?
**A.** Its value is inactive: -26.7%.

**Q.** Which Potency does the source give for c1ccc(Cc2noc(CN3CCCN(C4Cc5ccccc5C4)CC3)n2)cc1 here?
**A.** The Potency was inconclusive [inhibitor, single point].

**Q.** With O=C(Nc1cccnc1)C1(F)C(F)(F)C(F)(F)C(F)(F)C(F)(F)C1(F)F as the molecule, how does the Potency read?
**A.** The Potency was inconclusive [inhibitor, single point].

**Q.** For CCOC(=O)C(NC(=O)c1ccccc1)C(C)(C)SCc1ccccc1 (stereo not drawn), which Potency is on record?
**A.** Its Potency is inconclusive [inhibitor, single point].

**Q.** With CN(C)/C=N/c1nc2nccc(-c3ccccc3)n2n1 as the molecule, how does the Potency read?
**A.** Its Potency is inconclusive [inhibitor, single point].

**Q.** Which Potency does the source give for Cc1ccc(-c2nnc(SCC(=O)N3CC(C)CC(C)C3)o2)cc1C (stereo not drawn) here?
**A.** Its Potency is active: 25.9 µM.

**Q.** For O=C(Nc1ccc(Cl)cc1)N1CCC(CN2CCCCCC2)CC1, which Potency is on record?
**A.** The Potency was inconclusive [inhibitor, single point].

**Q.** With Nc1nc(-c2cccnc2)nc(N2CCCCC2)n1 as the molecule, how does the “activity change, negative = growth inhibition” value read?
**A.** The value was inactive: -21.6%.

**Q.** With COc1cccc(OCCNC(=O)CSc2ccc(C(F)(F)F)cc2[N+](=O)[O-])c1 as the molecule, how does the Potency read?
**A.** The Potency was active: 14.6 µM.

**Q.** With COCCN1C(=O)c2ccccc2C1c1nnnn1Cc1ccccc1 (stereo not drawn) as the molecule, how does the “activity change, negative = growth inhibition” value read?
**A.** Its value is inactive: -11.2%.

**Q.** Which “activity change, negative = growth inhibition” value does the source give for CCCCN(C)CCCNC(=O)/C=C1\Sc2ccccc2NC1=O here?
**A.** Its value is inactive: -8.56%.

**Q.** Which Potency does the source give for CCOC(=O)c1ccc(NC(=O)c2ncn3c2C(=O)NC[C@H]3C)cc1 here?
**A.** The Potency was inconclusive [inhibitor, single point].

**Q.** Which Potency does the source give for Cc1ccc(NC(=O)c2nnn(Cc3cccc(C(F)(F)F)c3)c2N)c(C)c1 here?
**A.** The Potency was inconclusive [inhibitor, partial curve].

**Q.** For O=C(NCC1CCCO1)c1nc2c(nnn2Cc2ccc(F)cc2)c(=O)[nH]1 (stereo not drawn), which “activity change, negative = growth inhibition” value is on record?
**A.** The value was inactive: -12.1%.

**Q.** Which Potency does the source give for O=C(CC(c1ccco1)C1CCCCC1=O)c1ccccc1 (stereo not drawn) here?
**A.** Its Potency is inconclusive [inhibitor, single point].

**Q.** With CCc1ccc(NC(=O)CN(C(=O)N2CCN(CC)CC2)S(=O)(=O)c2ccc(C)cc2)cc1 as the molecule, how does the “activity change, negative = growth inhibition” value read?
**A.** The value was inactive: 1.23%.

**Q.** Which Potency does the source give for Cc1oc2ccc(NS(=O)(=O)c3cccc4cccnc34)cc2c1C(=O)OC(C)C here?
**A.** The Potency was inconclusive [inhibitor, single point].
